Assay results: the supplement of paper PMC10126150
Sequences with one replicate were seen in a single cluster, so their values are uncertain.

System: ATP
Test: switch fluorescence ratio, 500 uM ATP over buffer (Cy3 cluster intensity, sum of 5 cycles each) (fold (ratio)); higher = stronger signal-on switching upon ATP binding; sequences stand for … in TCGTCGGCAGCGTCAGATGTGTATAAGAGACAGTTTTTTTTTTTTTTTTTTTTTTTTT…TC
Conditions: aptamer strand: ATP DNA aptamer (quencher-CACCTGGGGGAGTATTGCGGAGGAAGG + anchor), 100 nM annealed; ATP concentration: 500 uM; one replicate
How it was run: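 Imaging in selection buffer was followed by imaging after 15 min with 500 uM ATP at 22 °C, for Cy3-labelled switching-strand clusters annealed to 100 nM quencher-labelled ATP aptamer on a modified Illumina MiSeq flow-cell. Five of these buffer/ATP cycles ran, separated by NaOH stripping and re-annealing. The fluorescence ratio per cluster is summed target-cycle over summed buffer-cycle Cy3 intensity, averaged per switch-domain sequence; clusters outside 100-1000 RFU were removed.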
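Further: ATP exposure 15 min at 22 °C before imaging.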

Row | Sequence | switch fluorescence ratio
1 | TTGGTATCGC | 1.02
2 | TTGGTCACCC | 0.923
3 | TTGGTCACGT | 1.03
4 | TTGGTCCCAG | 1
5 | TTGGTCCGT | 0.967
6 | TTGGTCGGTG | 1.03
7 | TTGGTCTAGT | 1
8 | TTGGTGATAT | 1.05
9 | TTGGTGGAGC | 1.05
10 | TTGGTTGGA | 1
11 | TTGTAAACCA | 1.05
12 | TTGTAAATAA | 1.09
13 | TTGTAAGTA | 0.994
14 | TTGTAGGTTC | 1.27
15 | TTGTATCAAA | 0.977
16 | TTGTATCCTT | 1
17 | TTGTATTAGA | 1.02
18 | TTGTATTGAG | 1
19 | TTGTCACAC | 1.01
20 | TTGTCATACT | 1.32
21 | TTGTCCAGCA | 1
22 | TTGTCCCCCT | 0.965
23 | TTGTCGAGGA | 1.1
24 | TTGTCGGAT | 1
25 | TTGTCGGATG | 1
26 | TTGTCTGAG | 0.992

Row | Sequence | switch fluorescence ratio
27 | TTGTCTGTTG | 1.01
28 | TTGTGACATG | 1.08
29 | TTGTGATCCG | 1.06
30 | TTGTGCACTA | 1.02
31 | TTGTGCGGT | 1
32 | TTGTGGTAAT | 1.03
33 | TTGTGGTTCG | 0.959
34 | TTGTTAAGTT | 0.975
35 | TTGTTACCTG | 0.967
36 | TTGTTATTG | 1.02
37 | TTTAAACACG | 1.03
38 | TTTAAACGTG | 1.02
39 | TTTAAAGGCG | 1.03
40 | TTTAAATTT | 0.968
41 | TTTAACACAT | 0.981
42 | TTTAACCTAA | 0.985
43 | TTTAACGACA | 1.02
44 | TTTAACTACG | 1.07
45 | TTTAACTTC | 1.04
46 | TTTAACTTGC | 1.09
47 | TTTAAGCGCA | 1.07
48 | TTTAAGCTCC | 1.01
49 | TTTAAGGGGC | 1.03
50 | TTTAAGTAC | 1.42
51 | TTTAAGTTGA | 0.997
52 | TTTAATCAGT | 1.01

Row | Sequence | switch fluorescence ratio
53 | TTTACAAATG | 1.03
54 | TTTACAATCT | 1.04
55 | TTTACACAT | 1.05
56 | TTTACACCGG | 1.06
57 | TTTACAGGCT | 0.96
58 | TTTACCTGCT | 0.973
59 | TTTACGATAT | 1.17
60 | TTTACGCGAT | 1.13
61 | TTTACGGAAA | 0.999
62 | TTTACTAGCC | 1.03
63 | TTTACTGATA | 0.991
64 | TTTAGAAACA | 0.974
65 | TTTAGAAAGC | 0.984
66 | TTTAGACATT | 0.996
67 | TTTAGATATC | 1.01
68 | TTTAGATGTC | 1.04
69 | TTTAGCCCAA | 1.03
70 | TTTAGCGCAG | 1
71 | TTTAGCTATA | 1.06
72 | TTTAGCTGAT | 1.02
73 | TTTAGGACCT | 1.26
74 | TTTAGGAGCG | 0.987
75 | TTTAGGCCCG | 1.05
76 | TTTAGGGCGT | 0.944
77 | TTTAGTCAC | 1.02
78 | TTTAGTCTT | 1.01

Row | Sequence | switch fluorescence ratio
79 | TTTAGTTATA | 1.03
80 | TTTAGTTTGA | 0.958
81 | TTTATAATGC | 1.1
82 | TTTATACT | 1.07
83 | TTTATATCCG | 0.971
84 | TTTATCTCG | 1.02
85 | TTTATTGGAG | 1.03
86 | TTTATTGGCA | 1.03
87 | TTTATTTCAA | 0.96
88 | TTTATTTCAT | 0.99
89 | TTTCAAAAAG | 1
90 | TTTCAACGTG | 1.01
91 | TTTCAATCGG | 1
92 | TTTCACCCGA | 1.09
93 | TTTCACGGCA | 1.06
94 | TTTCAGAGCT | 1.02
95 | TTTCAGCGCT | 1.01
96 | TTTCAGCGT | 0.948
97 | TTTCAGGCAC | 1.18
98 | TTTCAGTGTG | 0.999
99 | TTTCATACCC | 0.996
100 | TTTCATTCG | 1.07
101 | TTTCCCCCGG | 2.07
